In PubChem BioAssay (NCI) one finds GI50 and TGI data, which are given here for 29 molecules.

“And” between values parts separate entries of the source, which are not always exact repeats. Equal values may be shown once.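 Test compounds were applied to cells in 96-well plates for 48 hours at 5 doses. The concentration for 50% growth inhibition is given as GI50. TGI denotes the concentration required for complete inhibition of growth.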 Peptide text beside a SMILES is read from it.

For this assay, the system named is NCI-H322M lung. Briefly: NCI-60 cell line screen, 48 h.
For the molecule `COc1ccc(/C=C(/C(=O)N2CCCCC2)c2cc(OC)c(OC)c(OC)c2)cc1`, the GI50 is 2.8 µM and the TGI was above 100 µM.
Taken in the same sequence, the figures for `COc1cc2nccc(Oc3ccc(NC(=O)C4(C(=O)Nc5ccc(F)cc5)CC4)cc3)c2cc1OC(=O)c1ccc(N)cc1` were 4.56 µM and above 100 µM.
`COc1ccc(/C=C2\C(=O)NC(=O)c3ccccc32)cc1OC` registered a TGI above 100 µM.
In the case of `COc1cc2c(cc1OCCCCCN1CCN(CCCCCOc3cc4c(cc3OC)C(=O)C3CCC[C@H]3C=N4)CC1)N=C[C@@H]1CCCC1C2=O` (stereo not given in full), the GI50 was 28.2 µM and the TGI is above 100 µM.
`CC(C)C(NCc1c2ccccc2[n+]([O-])c2ccccc12)C(=O)O` (stereo not given): the TGI is above 100 µM.
As for `C#CCNCCCN1C(=O)c2ccc3c4c(ccc(c24)C1=O)C(=O)N(CCCNCC#C)C3=O`, the GI50 was 0.201 µM and the TGI was 0.64 µM.
In turn, `CC(CO)CCNc1ncnc2c1ncn2CCC(=O)O` (stereo not given) returned a TGI above 100 µM.
`CCC(C)C1NC(=O)C(CCCCN)NC(=O)C(CCCCN)NC(=O)C(CC(C)C)NC(=O)C(CCCCN)NC(=O)C(C(C)CC)NC(=O)C(C(C)C)NC(=O)C(C(C)CC)NC(=O)C(CCCCN)NC(=O)C(CCCCN)NC(=O)C(C)NC(=O)C(CCCCN)NC(=O)C(CC(C)C)NC1=O` (stereo not given) (cyclo(AKKIVIKLKKILK); configuration not given here): the GI50 was 2.8 µM and the TGI worked out at 11.1 µM.
Molecule `Cn1cc(NC(=O)c2cc(NC(=O)CCCCCCCCCC(=O)Nc3cc(C(=O)Nc4cc(C(=O)NCCC(=N)N)n(C)c4)n(C)c3)cn2C)cc1C(=O)NCCC(=N)N` yielded a TGI of 46.3 µM.
Same read-out and setting: the same measure for `CCN(CC)c1ccc2cc(-c3nc4ccccc4n3C)c(=O)oc2c1`: above 100 µM; for `CN(C)CCNc1ccc2nnn3c4ccc(O)cc4c(=O)c1c23`: 10.7 µM.
As to `N/N=c1\c2ccccc2c2ccc3c4ccccc4/c(=N\N)c3c12`, the TGI was above 100 µM.
On the same count and under the same terms, the value for `CC1=CC(C)C(C)N(CC2=NCCN2)c2ccccc21` (stereo not given) was above 100 µM.
As for `O=C(NNC(=O)c1ccccc1S)c1ccccc1S`, the GI50 is 51.6 µM; the TGI is 25 µM and > 100 µM.
Turning to `O=S(=O)(Nc1ccc2ccccc2c1)N1CCCCC1`, the GI50 is 16.2 µM and the TGI amounted to 47.2 µM.
For the molecule `CCOC(=O)C(C(=O)OCC)C1C=CCC2c3ccccc3COCC21` (stereo not given), the TGI is above 100 µM.
Still for that read-out and setting: the same measure for `CC(NC(=O)OC(C)(C)C)C(=O)NC1CCCC1` (stereo not given): above 100 µM; for `CN1C(=O)N(C)C2(O)c3ccccc3C(=O)C12O` (stereo not given): above 100 µM; for `Oc1ccc2c(c1)OCC1(O)Cc3cc(O)c(O)cc3C21` (stereo not given): above 55.8 µM.
In turn, `O=C(Nc1cccc([N+](=O)[O-])c1)/C(=N\NC(=O)c1ccncc1)c1nc2ccc([N+](=O)[O-])cc2[nH]c1=O` displayed a TGI above 100 µM.
Regarding `CCCCCCCCn1ccc2cc(NC(=O)Cn3cc(CN4CCN(CC)CC4)nn3)ccc21`, the GI50 is 1.83 µM and the TGI worked out at 3.66 µM.
Taken in the same sequence, the figures for `O=S(=O)(Nc1cc(F)cc(F)c1)c1ccc(-c2cnc(C3CC3)o2)cc1` were 6.14 µM and above 100 µM.
`CN(C)c1nc2n(CCO)ccnc-2c(=O)n1` gave a TGI above 100 µM.
With `COc1ccc2c(c1OC)C(=O)OC2C1c2c(c(N)c3c(c2OC)OCO3)CCN1C` (stereo not given), the GI50 is 6.93 µM and the TGI is above 100 µM.
For `O=C([CH-]C(=O)C(F)(F)F)c1ccccc1.O=C([CH-]C(=O)C(F)(F)F)c1ccccc1.[O]=[U+2]=[O]`, in that order: 17.1 µM and 97.1 µM.
On to `O=C(Nc1cc(Cl)c(Cl)cc1Cl)C(=O)C(C(=O)c1ccccc1)C1OC(=O)c2ccccc21` (stereo not given), for which the TGI was above 100 µM.
The same measure, in the same setting: the same measure for `O=S(=O)(Nc1nccs1)c1ccc(Nc2nc(-c3cccs3)nc3ccc(I)cc23)cc1`: 39.6 µM; for `c1cncc(CNCCN2CCNCC2)c1`: above 100 µM.
On the same count and under the same terms, the value for `CCC(C)C1NC(=O)C(NC(=O)C(CC(C)C)N(C)C(=O)[C@@H]2C=CCN2C(=O)[C@H](C)O)C(C)OC(=O)[C@H](Cc2ccc(OC)cc2)N(C)C(=O)[C@@H]2CCCN2C(=O)[C@H](CC(C)C)NC(=O)C(C)C(=O)[C@H](C(C)C)OC(=O)CC1O` (stereo not given in full) was 0.025 µM.
